The source of these data is the supplement of paper PMC9446081.

Molecules are shown by their SMILES. The whole screen tested about 39,000 compounds, of which about 220 (0.56%) showed activity. This is one part of the list.
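Further: static incubation at 37 °C against the wild-type strain, values averaged over two biological replicates.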

The subject of this assay is Escherichia coli K-12 BW25113. Nature of the assay: relative growth (OD600 normalised to plate interquartile mean) (fraction); higher = less growth inhibition, active = 0.2 or less. Particulars: 50 µM; LB; incubation time: overnight (16-24 h).
For `C[C@@H]1CN([C@@H](C)CO)C(=O)c2cc(NS(=O)(=O)c3ccc(F)cc3)ccc2O[C@@H](C)CCCCO[C@@H]1CN(C)Cc1ccc2c(c1)OCO2`, the relative growth is inactive: 0.97.
As for `CCS(=O)(=O)N1C[C@]2(CN(C2)S(=O)(=O)c2cn(cn2)C)c2c(n(c3cc(ccc23)OC)C)[C@@H]1CO`, the relative growth was inactive: 1.
For `C[C@@H]1CN([C@H](C)CO)C(=O)c2cc(NC(=O)Nc3ccc(F)cc3)ccc2O[C@H]1CN(C)Cc1ccc(Cl)c(Cl)c1` the value was inactive: 1.02.
For `Cc1ccccc1-c1ccc2c(c1)O[C@@H](CN(C)C(=O)Nc1ccc(C(F)(F)F)cc1)[C@@H](C)CN([C@H](C)CO)S2(=O)=O` the value was inactive: 0.99; for `COc1cccc(S(=O)(=O)Nc2ccc3c(c2)[C@H]2C[C@@H](CC(=O)NC4CCCCC4)O[C@H](CO)[C@H]2O3)c1`, inactive: 0.981.
The value for `C[C@@H]1CN([C@H](C)CO)C(=O)Cc2cc(NC(=O)c3ccncc3)ccc2O[C@@H]1CN(C)Cc1ccc(C(=O)O)cc1` was inactive: 0.968; that for `C[C@@H]1CN([C@@H](C)CO)C(=O)c2cc(NC(=O)Nc3cccc4ccccc34)ccc2O[C@@H]1CN(C)C(=O)Nc1cccc2ccccc12` was inactive: 1.01.
With `C=CCOC(=O)[C@@H]1[C@H]2C(=O)O[C@H](c3ccccc3)[C@H](c3ccccc3)N2[C@H](c2ccc(OCCOC(=O)[C@H]3C[C@H]4C(=O)N[C@@H](CCCCN(C)C)C(=O)N4[C@H]3c3cccc(OCCO)c3)cc2)[C@@]12C(=O)Nc1ccc(I)cc12`, the relative growth is inactive: 1.07.
For `O=C(N[C@@H](c1ccc(-c2ccccc2)cc1)c1cnccn1)C1CCN(Cc2ccc(Cl)c(Cl)c2)CC1` the value was inactive: 1.04; for `C[C@H](CO)N1C[C@H](C)[C@H](CN(C)C(=O)Nc2ccc(F)cc2)OCCCC[C@H](C)Oc2ccc(NC(=O)C3CC3)cc2C1=O`, inactive: 0.985; for `COc1ccc(S(=O)(=O)Nc2ccc3c(c2)CC(=O)N([C@@H](C)CO)C[C@@H](C)[C@H](CN(C)Cc2ccc(-c4ccccc4)cc2)O3)cc1`, inactive: 0.986.
For `CCS(=O)(=O)Nc1ccc2c(c1)C(=O)N(C)C[C@H](OC)[C@@H](C)CN(C(=O)c1ccc3c(c1)OCO3)[C@H](C)CO2`, the relative growth was inactive: 1.03.
Consider `Cc1ccc(S(=O)(=O)Nc2ccc3c(c2)CC(=O)N([C@@H](C)CO)C[C@@H](C)[C@@H](CN(C)C(=O)Nc2ccc(C(F)(F)F)cc2)O3)cc1`, for which the relative growth is inactive: 0.977.
The value for `C[C@H]1CN([C@@H](C)CO)C(=O)Cc2cc(NC(=O)Nc3ccccc3)ccc2O[C@@H]1CN(C)Cc1ccc(Cl)c(Cl)c1` was inactive: 1.03; that for `C[C@@H]1CN([C@@H](C)CO)C(=O)CCCn2cc(nn2)CO[C@H]1CN(C)S(=O)(=O)c1ccc(Cl)cc1` was inactive: 1.
The value for `C[C@@H]1CN([C@H](C)CO)C(=O)c2cccc(NC(=O)c3ccncc3)c2O[C@@H]1CN(C)C(=O)Nc1ccc2c(c1)OCO2` was inactive: 0.985.
On to `CO[C@H]1CN(C)C(=O)c2ccc(NC(=O)c3ccc(F)cc3)cc2OC[C@H](C)N(C(=O)CN(C)C)C[C@H]1C`, for which the relative growth is inactive: 0.984.
As for `C[C@@H]1CN([C@H](C)CO)C(=O)c2cc(NS(=O)(=O)c3ccc(Cl)cc3)ccc2O[C@@H]1CN(C)C(=O)Nc1ccc(C(F)(F)F)cc1`, the relative growth was inactive: 0.998.
Turning to `C[C@H]1CN([C@@H](C)CO)C(=O)Cc2cc(NC(=O)Cc3ccccc3)ccc2O[C@@H]1CN(C)S(=O)(=O)c1cccs1`, the relative growth is inactive: 0.994.
The value for `C[C@@H]1CCCCO[C@@H](CN(C)CC2CCCCC2)[C@@H](C)CN([C@H](C)CO)C(=O)c2cc(NC(=O)CCCCCC(=O)Nc3ccccc3N)ccc2O1` was inactive: 1.01; that for `COc1ccc(CNC(=O)N(C)C[C@H]2OCc3ccccc3-c3c(n(C)c4ccccc34)C(=O)N([C@@H](C)CO)C[C@H]2C)cc1` was inactive: 1.02; that for `COc1ccc(CN(C)C[C@H]2Oc3c(NS(C)(=O)=O)cccc3C(=O)N([C@@H](C)CO)C[C@@H]2C)cc1` was inactive: 0.999.
`Cc1ccc(S(=O)(=O)Nc2ccc3c(c2)C(=O)N([C@@H](C)CO)C[C@@H](C)[C@H](CN(C)S(=O)(=O)c2ccc(F)cc2)OCCCC[C@@H](C)O3)cc1`: the relative growth was inactive: 1.04.
In the case of `Cc1ccc(S[C@]2(C(=O)NC(C)C)CC(=O)N(Cc3ccccc3Cl)[C@@H]2c2ccc(CO)cc2)cc1`, the relative growth is inactive: 1.04.
On to `Cc1noc(C)c1NC(=O)N(C)C[C@@H]1OCCCC[C@H](C)Oc2ccc(NC(=O)C3CCCCC3)cc2C(=O)N([C@H](C)CO)C[C@H]1C`, for which the relative growth is inactive: 0.983.
For `C=CC(=O)N[C@H]1CCCN(CC)C1` the value was inactive: 0.975.
In the case of `Cc1noc(C)c1S(=O)(=O)Nc1ccc2c(c1)C(=O)N([C@@H](C)CO)C[C@H](C)[C@@H](CN(C)S(=O)(=O)c1cccs1)O2`, the relative growth was inactive: 0.989.
For `C[C@@H]1CN([C@@H](C)CO)C(=O)c2cc(C#CCN(C)C)cnc2O[C@H]1CN(C)Cc1cccc(C(=O)O)c1` the value was inactive: 1.01; for `C[C@@H]1CN([C@@H](C)CO)C(=O)c2cccc(NC(=O)c3ccncc3)c2O[C@@H]1CN(C)S(=O)(=O)c1ccccc1`, inactive: 0.975.
For `COCC(=O)N1C[C@@H](C)[C@H](OC)CN(C)C(=O)c2cc(NC(=O)c3ccc(F)cc3)ccc2OC[C@H]1C` the value was inactive: 1.01; for `C[C@H]1CN([C@@H](C)CO)C(=O)Cc2cc(NC(=O)CCN3CCOCC3)ccc2O[C@@H]1CN(C)S(=O)(=O)c1ccccc1`, inactive: 1.02.
As to `COc1cccc(C#Cc2cnc3c(c2)C(=O)N([C@H](C)CO)C[C@@H](C)[C@H](CN(C)C(=O)C2CCC2)O3)c1`, the relative growth is inactive: 1.01.
On to `C[C@@H]1CN([C@@H](C)CO)S(=O)(=O)c2ccc(C#Cc3ccccc3F)cc2O[C@@H]1CN(C)C(=O)c1ccc2c(c1)OCO2`, for which the relative growth is inactive: 0.959.
`COc1ccccc1C#Cc1ccc2c(c1)O[C@@H](CN(C)Cc1ccncc1)[C@H](C)CN([C@H](C)CO)S2(=O)=O`: the relative growth was inactive: 1.04.
Consider `O=C(O)c1c(O)c2c([nH]c1=O)CCCC2`, for which the relative growth was active: 0.104.
Take `Cl.NC(CO)C(=O)NNCc1ccc(O)c(O)c1O` (stereo unspecified): the relative growth is inactive: 0.941.
